# Assay results reported in the supplement of paper PMC8728848.
# This is one part of the list.
# Tests used:
# Assay in all cases: glycan array binding signal (z-score within array); higher = stronger binding
# Conditions in all cases: glycan notation: IUPAC condensed, linker removed
# [1] = molecular target: Gal(b1-3)GlcNAc(b1-2)Man(a1-3)[Gal(b1-3)GlcNAc(b1-2)Man(a1-6)]Man(b1-4)GlcNAc(b1-4)GlcNAc
# Procedure, shortened: (§1)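 Negative Z-scores can be read as non-binding. The Z-score is calculated within each array and then averaged across arrays of one protein sequence at different concentrations or buffers and across linkers. Arrays, 3228 in all, were curated from the Consortium for Functional Glycomics database and kept only where the protein sequence was available.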
# [2] = molecular target: Gal(b1-3)GlcNAc(b1-2)Man(a1-3)[Gal(b1-3)GlcNAc(b1-2)Man(a1-6)]Man(b1-4)GlcNAc(b1-4)[Fuc(a1-6)]GlcNAc
# Procedure, shortened: as §1
# [3] = molecular target: Gal(b1-3)GlcNAc(b1-2)Man(a1-3)[GlcNAc(b1-4)][Gal(b1-3)GlcNAc(b1-2)Man(a1-6)]Man(b1-4)GlcNAc(b1-4)GlcNAc
# Procedure, shortened: as §1
# [4] = molecular target: Gal(b1-3)GlcNAc(b1-2)[Gal(b1-3)GlcNAc(b1-6)]Man(a1-6)[Gal(b1-3)GlcNAc(b1-2)Man(a1-3)]Man(b1-4)GlcNAc(b1-4)GlcNAc
# Procedure, shortened: as §1
# [5] = molecular target: Gal(b1-3)GlcNAc(b1-3)Gal(b1-3)GlcNAc
# Procedure, shortened: as §1
# [6] = molecular target: Gal(b1-3)GlcNAc(b1-3)Gal(b1-4)Glc
# Procedure, shortened: as §1
# [7] = molecular target: Gal(b1-3)GlcNAc(b1-3)Gal(b1-4)GlcNAc
# Procedure, shortened: as §1
# [8] = molecular target: Gal(b1-3)GlcNAc(b1-3)Gal(b1-4)GlcNAc(b1-2)Man(a1-3)[Gal(b1-3)GlcNAc(b1-3)Gal(b1-4)GlcNAc(b1-2)Man(a1-6)]Man(b1-4)GlcNAc(b1-4)GlcNAc
# Procedure, shortened: as §1
# [9] = molecular target: Gal(b1-3)GlcNAc(b1-3)Gal(b1-4)GlcNAc(b1-2)[Gal(b1-3)GlcNAc(b1-3)Gal(b1-4)GlcNAc(b1-6)]Man(a1-6)[Gal(b1-3)GlcNAc(b1-3)Gal(b1-4)GlcNAc(b1-2)Man(a1-3)]Man(b1-4)GlcNAc(b1-4)[Fuc(a1-6)]GlcNAc
# Procedure, shortened: as §1
# [10] = molecular target: Gal(b1-3)GlcNAc(b1-3)Gal(b1-4)GlcNAc(b1-3)Gal(b1-4)GlcNAc(b1-2)[Gal(b1-3)GlcNAc(b1-3)Gal(b1-4)GlcNAc(b1-3)Gal(b1-4)GlcNAc(b1-6)]Man(a1-6)[Gal(b1-3)GlcNAc(b1-3)Gal(b1-4)GlcNAc(b1-3)Gal(b1-4)GlcNAc(b1-2)Man(a1-3)]Man(b1-4)GlcNAc(b1-4)[Fuc(a1-6)]GlcNAc
# Procedure, shortened: as §1
# [11] = molecular target: Gal(b1-3)GlcNAc(b1-3)Gal(b1-4)GlcNAc(b1-6)[Gal(b1-3)GlcNAc(b1-3)]Gal(b1-4)Glc
# Procedure, shortened: as §1
# [12] = molecular target: Gal(b1-3)GlcNAc(b1-3)Gal(b1-4)[Fuc(a1-3)]GlcNAc
# Procedure, shortened: as §1
# [13] = molecular target: Gal(b1-3)GlcNAc(b1-3)Gal(b1-4)[Fuc(a1-3)]GlcNAc(b1-6)[Gal(b1-3)GlcNAc(b1-3)]Gal(b1-4)Glc
# Procedure, shortened: as §1
# [14] = molecular target: Gal(b1-3)GlcNAc(b1-3)GalNAc
# Procedure, shortened: as §1
# [15] = molecular target: Gal(b1-3)GlcNAc(b1-6)Gal(b1-4)GlcNAc
# Procedure, shortened: as §1
# [16] = molecular target: Gal(b1-3)GlcNAc(b1-6)GalNAc
# Procedure, shortened: as §1
# [17] = molecular target: Gal(b1-3)GlcNAc(b1-6)[Gal(b1-3)]GalNAc
# Procedure, shortened: as §1
# Gal(b1-3)GlcNAc6S = molecular target: Gal(b1-3)GlcNAc6S
# Procedure, shortened: as §1
# [18] = molecular target: Gal(b1-3)[Fuc(a1-4)]GlcNAc
# Procedure, shortened: as §1
# [19] = molecular target: Gal(b1-3)[Fuc(a1-4)]GlcNAc(b1-2)Man
# Procedure, shortened: as §1
# [20] = molecular target: Gal(b1-3)[Fuc(a1-4)]GlcNAc(b1-2)Man(a1-3)[Gal(b1-3)[Fuc(a1-4)]GlcNAc(b1-2)Man(a1-6)]Man(b1-4)GlcNAc(b1-4)[Fuc(a1-6)]GlcNAc
# Procedure, shortened: as §1
# [21] = molecular target: Gal(b1-3)[Fuc(a1-4)]GlcNAc(b1-3)Gal(b1-3)[Fuc(a1-4)]GlcNAc
# Procedure, shortened: as §1
# [22] = molecular target: Gal(b1-3)[Fuc(a1-4)]GlcNAc(b1-3)Gal(b1-4)[Fuc(a1-3)]GlcNAc
# Procedure, shortened: as §1
# [23] = molecular target: Gal(b1-3)[Fuc(a1-4)]GlcNAc(b1-6)GalNAc
# Procedure, shortened: as §1
# [24] = molecular target: Gal(b1-3)[GlcNAc(b1-6)]GalNAc
# Procedure, shortened: as §1
# [25] = molecular target: Gal(b1-3)[Neu5Ac(a2-6)]GalNAc
# Procedure, shortened: as §1
# [26] = molecular target: Gal(b1-3)[Neu5Ac(a2-6)]GlcNAc(b1-4)Gal(b1-4)Glc
# Procedure, shortened: as §1
# [27] = molecular target: Gal(b1-3)[Neu5Ac(b2-6)]GalNAc
# Procedure, shortened: as §1
# Gal(b1-4)Gal = molecular target: Gal(b1-4)Gal
# Procedure, shortened: as §1
# [28] = molecular target: Gal(b1-4)GalNAc(a1-3)[Fuc(a1-2)]Gal(b1-4)GlcNAc
# Procedure, shortened: as §1
# [29] = molecular target: Gal(b1-4)GalNAc(b1-3)[Fuc(a1-2)]Gal(b1-4)GlcNAc
# Procedure, shortened: as §1
# Gal(b1-4)Glc = molecular target: Gal(b1-4)Glc
# Procedure, shortened: as §1
# Gal(b1-4)Glc6S = molecular target: Gal(b1-4)Glc6S
# Procedure, shortened: as §1
# Gal(b1-4)GlcNAc = molecular target: Gal(b1-4)GlcNAc
# Procedure, shortened: as §1
# [30] = molecular target: Gal(b1-4)GlcNAc(a1-6)Gal(b1-4)GlcNAc
# Procedure, shortened: as §1
# Gal(b1-4)GlcNAc(b1-2)Man = molecular target: Gal(b1-4)GlcNAc(b1-2)Man
# Procedure, shortened: as §1
# [31] = molecular target: Gal(b1-4)GlcNAc(b1-2)Man(a1-3)Man(b1-4)GlcNAc(b1-4)GlcNAc
# Procedure, shortened: as §1
# [32] = molecular target: Gal(b1-4)GlcNAc(b1-2)Man(a1-3)[Gal(b1-4)GlcNAc(b1-2)Man(a1-6)]Man(b1-4)GlcNAc(b1-4)GlcNAc
# Procedure, shortened: as §1
# [33] = molecular target: Gal(b1-4)GlcNAc(b1-2)Man(a1-3)[Gal(b1-4)GlcNAc(b1-2)Man(a1-6)]Man(b1-4)GlcNAc(b1-4)[Fuc(a1-6)]GlcNAc
# Procedure, shortened: as §1
# [34] = molecular target: Gal(b1-4)GlcNAc(b1-2)Man(a1-3)[Gal(b1-4)GlcNAc(b1-2)Man(a1-6)][Gal(b1-4)GlcNAc(b1-4)]Man(b1-4)GlcNAc(b1-4)[Fuc(a1-6)]GlcNAc
# Procedure, shortened: as §1
# [35] = molecular target: Gal(b1-4)GlcNAc(b1-2)Man(a1-3)[Gal(b1-4)GlcNAc(b1-2)Man(a1-6)][GlcNAc(b1-4)]Man(b1-4)GlcNAc(b1-4)[Fuc(a1-6)]GlcNAc
# Procedure, shortened: as §1
# [36] = molecular target: Gal(b1-4)GlcNAc(b1-2)Man(a1-3)[GlcNAc(b1-2)Man(a1-6)]Man(b1-4)GlcNAc(b1-4)GlcNAc
# Procedure, shortened: as §1
# [37] = molecular target: Gal(b1-4)GlcNAc(b1-2)Man(a1-3)[GlcNAc(b1-4)][Gal(b1-4)GlcNAc(b1-2)Man(a1-6)]Man(b1-4)GlcNAc(b1-4)GlcNAc
# Procedure, shortened: as §1
# [38] = molecular target: Gal(b1-4)GlcNAc(b1-2)Man(a1-3)[Man(a1-6)]Man(b1-4)GlcNAc(b1-4)GlcNAc
# Procedure, shortened: as §1
# [39] = molecular target: Gal(b1-4)GlcNAc(b1-2)Man(a1-6)Man(b1-4)GlcNAc(b1-4)GlcNAc
# Procedure, shortened: as §1
binder,measurement,setting,value
Als3-41 (Candida albicans) (protein) KTITGVFNSFNSLTWSNAATYNYKGPGTPTWNAVLGWSLDGTSASPGDTFTLNMPCVFKFTTSQTSVDLTAHGVKYATCQFQAGEEFMTFSTLTCTVSNTLTPSIKALGTVTLPLAFNVGGTGSSVDLEDSKCFTAGTNTVTFNDGGKKISINVDFERSNVDPKGYLTDSRVIPSLNKVSTLFVAPQCANGYTSGTMGFANTYGDVQIDCSNIHVGITKGLNDWNYPVSSESFSYTKTCSSNGIFITYKNVPAGYRPFVDAYISATDVNSYTLSYANEYTCAGGYWQRAPFTLRWTGYRNSDAGSNGIVIVATTRTVTDSTTAVTTLPFDPNRDKTKTIEILKPIPTTTITTSYVGVTTSYLTKTAPIGETATVIVD,glycan array binding signal (z-score),[1],-0.211
same,glycan array binding signal (z-score),[2],-0.291
same,glycan array binding signal (z-score),[3],0.317
same,glycan array binding signal (z-score),[4],-0.281
same,glycan array binding signal (z-score),[5],0.028
same,glycan array binding signal (z-score),[6],-0.33
same,glycan array binding signal (z-score),[7],-0.159
same,glycan array binding signal (z-score),[8],0.175
same,glycan array binding signal (z-score),[9],0.669
same,glycan array binding signal (z-score),[10],0.045
same,glycan array binding signal (z-score),[11],-0.376
same,glycan array binding signal (z-score),[12],-0.095
same,glycan array binding signal (z-score),[13],-0.357
same,glycan array binding signal (z-score),[14],-0.091
same,glycan array binding signal (z-score),[15],-0.234
same,glycan array binding signal (z-score),[16],-0.311
same,glycan array binding signal (z-score),[17],0.046
same,glycan array binding signal (z-score),Gal(b1-3)GlcNAc6S,-0.278
same,glycan array binding signal (z-score),[18],-0.315
same,glycan array binding signal (z-score),[19],-0.081
same,glycan array binding signal (z-score),[20],-0.339
same,glycan array binding signal (z-score),[21],0.013
same,glycan array binding signal (z-score),[22],-0.357
same,glycan array binding signal (z-score),[23],0.486
same,glycan array binding signal (z-score),[24],-0.166
same,glycan array binding signal (z-score),[25],-0.251
same,glycan array binding signal (z-score),[26],-0.317
same,glycan array binding signal (z-score),[27],-0.359
same,glycan array binding signal (z-score),Gal(b1-4)Gal,-0.215
same,glycan array binding signal (z-score),[28],-0.238
same,glycan array binding signal (z-score),[29],-0.258
same,glycan array binding signal (z-score),Gal(b1-4)Glc,-0.273
same,glycan array binding signal (z-score),Gal(b1-4)Glc6S,-0.217
same,glycan array binding signal (z-score),Gal(b1-4)GlcNAc,-0.217
same,glycan array binding signal (z-score),[30],0.128
same,glycan array binding signal (z-score),Gal(b1-4)GlcNAc(b1-2)Man,-0.112
same,glycan array binding signal (z-score),[31],-0.116
same,glycan array binding signal (z-score),[32],-0.27
same,glycan array binding signal (z-score),[33],0.725
same,glycan array binding signal (z-score),[34],-0.162
same,glycan array binding signal (z-score),[35],-0.306
same,glycan array binding signal (z-score),[36],-0.06
same,glycan array binding signal (z-score),[37],-0.325
same,glycan array binding signal (z-score),[38],-0.026
same,glycan array binding signal (z-score),[39],0.552
